# Measurements taken from PubChem BioAssay AID1347430 (National Center for Advancing Translational Sciences (NCATS), 2020).
# In all, about 91,000 compounds went through this assay and about 130 (0.14%) were called active. Inconclusive results, whose numbers are uncertain, are shown with a selection of clear calls. The call rests on the fitted dose curve; in most records, active means well fitted inhibition curve with a large enough effect; inconclusive means small, poorly fitted or top-dose-only effect; inactive means flat fitted curve, though single readings scatter. Potencies of inconclusive entries are doubtful fits and often do not repeat.
# System: Uracil-DNA glycosylase
# Assay: Primary qHTS assay for inhibitors of Activation Induced Cytidine Deaminase (AID): UDG Counterscreen signal; further: nearly all actives have a fitted effect of over 65% in size
# Conditions: FRET deamination/UDG coupled assay, UDG read, 4 h; series mostly up to 115 µM
# Excerpt: Assay Provider (PI) Patricia Gearhart Ph.D.
# National Institute on Aging
# National Institute of Health (NIH), Bethesda, MD
# Assay Provider (PI) Rahul Kohli Ph.D.
# Perelman School of Medicine
# University of Pennsylvania, Philadelphia, PA
# Activation-Induced Deaminase (AID) is a cytosine deaminase which converts cytosine into uracil within stretches of ssDNA. The presence of uracil in DNA initiates a cascade of mutagenic DNA repair to introduce point mutations and DNA double strand breaks. Specific targeting of AID to the immunoglobulin heavy chain loci (Igh) promotes mutagenesis in the antibody variable region for somatic hypermutation (SHM) or switch regions leading to class switch recombination (CSR). However, AID also plays a role in accumulating unnecessary mutations across the genome. Mis-targeting of AID results in the initiation of tumor development and leads to greater drug resistance among cancer cells when continually expressed. To identify an AID inhibitor, a small molecule library will be screened in collaboration with NCATS core facility at NIH. To confirm biological function, inhibitors will be examined in an in vitro murine B-cell activation assay and subsequent secondary validation screens. Top molecules will be further screened to identify inhibitory efficacy against a wild type primary splenocytes assay. Using these approaches, we hope to identify a small molecule with great efficacy and low toxicity for use as a molecular probe to further characterize AID's intricacies, or even as a therapeutic.
# A FRET based analysis of cytosine deamination, was developed to identify potential inhibitors of AID catalytic activity. This screen has two signal output, Read 1 evaluates the AID inhibition response. The second readout (Read 2) evaluates UDG response and is uses as a counterscreen to exclude false positive inhibitors. Inhibition in AID and inactivity in the UDG signal is the desired outcome for this assay.
# SEQUENCE No. (e.g., 1, 2, 3, etc.); […] (e.g., Cells, Incubation, Reagent, etc.); VALUE; DESCRIPTION
# 1a; Reagent; 3 uL; [4/3x] 1 uM AID/2.67 U/mL UDG
# 1b; Reagent; 3 uL; 2 U/mL UDG
# 1c; Reagent; 3 uL; 1 uM AID
# 2a; Compound; 46 nL; Follow-up plates (0.64 uM - 10 mM)
# 2b; Control; 46 nL; ATA ([…] - 10 mM)
# 3; Time; 10 min; incubation at room temperature
# 5; Time; 4 hr; incubation at room temperature
# 6; Reagent; 4 uL; [2x] 250 mM NaOH
# 7; Time; 15 sec; centrifuge at 1000 rpm
# 8; Time; 30 min; incubation at room temperature
# 9a; Detection; fluorescence (Read 1: AID); EnVision (PerkinElmer) plate reader, 540 excitation and 590 emission filters
# 9b; Detection; fluorescence (Read 2: UDG); EnVision (PerkinElmer) plate reader, 560 excitation and 665 emission filters
# NOTES (numbers refer to sequence above)
# 1a; Reagents were dispensed in a medium-binding black solid-bottom Greiner plates (789176F) using a BioRptr liquid dispenser. Dispense 3 uL of [4/3x] 1 uM AID (provided by Kohli lab) and [4/3x] 2 U/mL UDG (NEB M0280L) into columns 1, 2, 5 to 48.
# 1b; Dispense 3 uL of [4/3x] 2 U/mL UDG into column 3.
# 1c; Dispense 3 uL of [4/3x] 1 uM AID into column 4.
# 2a; Compound (7-points [uM] (0.64; 3.2; 16; 80; 400; 2,000; 10,000; 20,000) double pin-transferred (Dip Factor = 2) using the Kalypsys (Wako USA) pintool equipped with a 1536 pinhead for a final concentration range of 7.32 nM - 114 uM.
# 2b; 10 mM Aurintricarboxylic Acid (Sigma A1895) (ATA, 8-point, n = 2, 1:2.5 dilution in column 2) double pin-transferred (Dip Factor = 2) using the Kalypsys (Wako USA) pintool equipped with a 1536 pinhead for a [final] range of 186 nM - 114 uM.
# 3; Room temperature incubation.
# 4; Dispense 1 uL of substrate mixture from the Kohli lab [4x] […] DJC20 and [4x] 250 nM DJC23 into columns 1 to 48 .
# 5; Room temperature incubation.
# 6; Dispense 4 uL of substrate mixture [2x] 250 mM NaOH into columns 1 to 48.
# 7; Centrifugation step to remove bubbles.
# 8; Room temperature incubation
# 9a; Fluorescence signal (column label AID) was read using the EnVision plate reader. […]
# Potency means the concentration at half of the fitted maximal effect; tags describe the fitted curve by direction and shape.
row,Compound,Potency
1,CCOc1ccc(NC(=O)C2CCCN(c3nn4cc(-c5ccc(OC)cc5)nc4s3)C2)cc1 (stereo not given),"inconclusive: 89.1 µM [inhibitor, single point]"
2,COC(=O)c1cc2oc3ccccc3c2n1CC(=O)Nc1ccc(OC)c(OC)c1,"inconclusive: 89.1 µM [inhibitor, partial curve, poor fit]"
3,COCCN1Cc2cccc(C(=O)Nc3ccc(C)c(F)c3)c2C1=O,"inconclusive: 89.1 µM [inhibitor, single point]"
4,Cc1ccc2c(c1)c1c(c(=O)n(-c3cccc(Cl)c3)c(=O)n1CC(=O)c1ccc(Cl)cc1)n2C,"inconclusive: 100 µM [inhibitor, single point]"
5,COc1ccc(Br)cc1CN1CCCC(C(=O)N2CCCCC2)C1 (stereo not given),"inconclusive: 63.1 µM [inhibitor, partial curve, poor fit]"
6,COc1ccc(CNC(=O)c2ccc(-c3nc(CSc4ccc(C)cc4)c(C)o3)cc2)cc1OC,"inconclusive: 89.1 µM [inhibitor, single point]"
7,Cc1ccc(-c2noc(-c3ccc(NCC4CCCO4)c([N+](=O)[O-])c3)n2)cc1 (stereo not given),"inconclusive: 89.1 µM [inhibitor, single point]"
8,Cc1nc(/C=C/C(=O)N(Cc2ccccc2)C2CC2)cs1,inactive
9,CC(C)(C)c1ccc(C(=O)NCCCNC(=O)c2cc3ccccc3[nH]2)cc1,"inconclusive: 79.4 µM [inhibitor, single point]"
10,COc1ccc(C(C)=O)c(OCc2cc(Br)ccc2OC)c1,inactive
11,Cc1ccccc1-c1noc(CSc2nnc(Cc3ccccc3)n2-c2ccc(F)cc2)n1,"inconclusive: 22.4 µM [inhibitor, partial curve, poor fit]"
12,COc1ccc(-c2noc(CSc3nnc(-c4ccncc4)n3-c3ccccc3)n2)cc1,"inconclusive: 89.1 µM [inhibitor, partial curve, poor fit]"
13,CCCCC12CN3CC(C)(CN(C1)C3c1c(C)[nH]c(=O)[nH]c1=O)C2=O (stereo not given),"inconclusive: 56.2 µM [inhibitor, partial curve, poor fit]"
14,CCOc1ccc(CCNC(=O)c2cc3c(-c4cccc(OC)c4)nn(C)c3s2)cc1OCC,"inconclusive: 89.1 µM [inhibitor, partial curve, poor fit]"
15,Cc1cccc(C(CC(=O)NCC2(c3ccccc3)CCCC2)c2ccccc2)c1O (stereo not given),"inconclusive: 100 µM [inhibitor, partial curve, poor fit]"
16,O=C(CSc1oc(-c2ccco2)nc1S(=O)(=O)c1ccc(Cl)cc1)c1ccccc1,"inconclusive: 79.4 µM [inhibitor, partial curve, poor fit]"
17,Cc1[nH]c2ccc(Cl)cc2c1C,inactive
18,Cc1ccc(S(=O)(=O)c2nnn3c2nc(Nc2ccc(C(C)C)cc2)c2sccc23)cc1C,"inconclusive: 89.1 µM [inhibitor, single point]"
19,CCc1ccc(C(=O)COC(=O)c2ccc(C(=O)c3ccccc3)cc2)cc1,inactive
20,COc1ccc(CCNC(=O)C(=O)NCC(c2cccs2)S(=O)(=O)c2ccccc2)cc1 (stereo not given),"inconclusive: 100 µM [inhibitor, single point]"

row,Compound,Potency
1,CC(=O)c1cccc(Nc2nc(-c3ccccc3Cl)nc3ccccc23)c1,"inconclusive: 89.1 µM [inhibitor, single point]"
2,Cn1cc(-c2cc3n(n2)CCC(=O)N3CCCC(=O)Nc2ccccc2F)c2ccccc21,"inconclusive: 100 µM [inhibitor, single point]"
3,CSc1ccc(/C=N/Nc2cccc(Cl)c2)cc1,inactive
4,Cc1ccc(C)c(S(=O)(=O)c2nnn3c2nc(N2CCCCC2)c2sccc23)c1,"inconclusive: 89.1 µM [inhibitor, single point]"
5,Cc1ccc(C(CNC(=O)c2cc(-c3ccccc3)on2)N2CCC(C)CC2)o1 (stereo not given),inactive
6,CCCc1cc(=O)[nH]c(Nc2ccc(O)cc2C)n1,inactive
7,COc1cc(-c2ccno2)ccc1S(=O)(=O)N1CCN(c2ccc(F)cc2)CC1,"inconclusive: 89.1 µM [inhibitor, partial curve, poor fit]"
8,Cc1ccc(/C=N/NC(=O)CCc2ccccc2)cc1,inactive
9,O=C(O)/C(=C\c1ccc(Br)cc1)Sc1nc2ccccc2s1,inactive
10,Clc1cccc(-n2ncc3c(N4CCCCCC4)ncnc32)c1,"inconclusive: 89.1 µM [inhibitor, partial curve, poor fit]"
11,COc1cc(OC)c(NC(=O)c2c(C)oc3ncnc(N4CCCCC4)c23)cc1Cl,"inconclusive: 100 µM [inhibitor, single point]"
12,Cc1ccc(C(=O)c2cn(Cc3c(F)cccc3Cl)c3nc(C)ccc3c2=O)cc1,inactive
13,CCc1nc2ccc(C(=O)NCCc3ccc(OC)cc3OC)cc2nc1CC,"inconclusive: 79.4 µM [inhibitor, partial curve, poor fit]"
14,Cn1nc(CC(=O)OCC(=O)NC2CC2)c2ccccc2c1=O,inactive
15,O=C1Cc2cc(S(=O)(=O)N3CCCCC3)cc3c2N1CCC3,active: 89.1 µM
16,Cc1cccc(C)c1NC(=O)CN(C)S(=O)(=O)c1ccc2[nH]c3c(c2c1)CCCC3,"inconclusive: 15.8 µM [inhibitor, partial curve, poor fit]"
17,COc1cc(OC)c(NC(=O)C(C)n2nc(-c3ccc(C)cc3)c3c(c2=O)CCCC3)cc1Cl (stereo not given),"inconclusive: 28.2 µM [inhibitor, partial curve, poor fit]"
18,COc1cccc(N2CCN(S(=O)(=O)c3ccc(-c4cnc(C5CC5)o4)cc3)CC2)c1,"inconclusive: 79.4 µM [inhibitor, partial curve, poor fit]"
19,CCc1ccc(NC(=O)CSC2=Nc3ccccc3C3=NC(CCC(=O)NCc4cccs4)C(=O)N23)cc1 (stereo not given),"inconclusive: 89.1 µM [inhibitor, single point]"
20,COc1cc(CN2CCc3nc(Nc4ccc5c(c4)OCCO5)ncc3C2)cc(OC)c1OC,"inconclusive: 89.1 µM [inhibitor, partial curve, poor fit]"
